# Out of some 46,000 compounds screened, about 60 (0.1%) were called active. Not shown: some 3% with an inconclusive outcome. The call rests on the fitted dose curve; in most records, active means well fitted inhibition curve with a large enough effect; inconclusive means small, poorly fitted or top-dose-only effect; inactive means no such curve, though single readings can be large or run the other way. The list shows a part of the results.
# Experiment: Primary qHTS assay for Inhibitors of ovarian cancer metastasis using an organotypic tumor microenvironment (TME) model. Further: nearly all actives have a fitted effect of over 65% in size.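 On activity change, negative = inhibition: plate controls were DMSO wells for no effect and tomatine positive control wells for full effect.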
# Details: SKOV3ip1-GFP adhesion/invasion on 3D omental model, fluorescence; series mostly up to 45.8 µM; activity change, negative = inhibition: at the top concentration
# Method in brief: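 Adhesion/invasion was scored as fixed GFP-labeled SKOV3ip1 cell counts (488/509 nm), normalized to DMSO and tomatine controls. Cancer cells in serum-free medium, with four compound doses (0.36-46 umol/L), sat 2 hr at RT then 16 hr at 37 C on a 48 hr fibroblast/mesothelial/ECM culture.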
SMILES,outcome,"activity change, negative = inhibition"
Cc1c(C(=O)Nc2nc(-c3ccc(F)cc3)ns2)oc2ccc(Br)cc12,inactive,
O=C(Cn1ccn(-c2cccc(Cl)c2)c(=O)c1=O)NCCc1ccccc1,,inactive: -3.39%
CC(C)c1ccc(NC(=O)C2CCN(S(=O)(=O)c3cccc4nsnc34)CC2)cc1,inactive,
COc1ccc(NC(=O)NC2COc3ccccc3C2)c(OC)c1 (stereo not drawn),,inactive: -11%
COc1ccc(N2CCN(C(=O)CCc3c(C)nc4c(-c5ccccc5)c(C)nn4c3C)CC2)cc1,,inactive: -11.5%
COc1ccc(CNC(=O)Cn2c(=O)oc3cc(S(=O)(=O)N4CCCCCC4)ccc32)cc1,inactive,
COc1ccccc1CNC(=O)CCCCn1c(=O)c2ccccc2n(Cc2c(C)cc(C)cc2C)c1=O,,inactive: 3.98%
Cc1cn([C@H]2C=C[C@@H](CO)O2)c(=O)[nH]c1=O,,inactive: -2.41% [at 92.2 µM]
COc1ccccc1CNC(=O)CCc1c(C)c2ccc(OC)c(C)c2oc1=O,,inactive: 8.55%
Cc1c(C(=O)Nc2ccc(F)c(F)c2)oc2ccc(S(=O)(=O)N3CCCCC3)cc12,,inactive: -0.859%
O=S(=O)(NCC(c1ccco1)S(=O)(=O)c1ccccc1)c1ccccc1 (stereo not drawn),,inactive: -1.53%
CN(CC(=O)Nc1cccc(Cl)c1)S(=O)(=O)c1ccc2[nH]c3c(c2c1)CCCC3,,inactive: -6.29%
COc1ccc2c(c1)cc(CNc1ccc(OC)c(OC)c1)c(=O)n2CC(=O)Nc1ccc(F)cc1,inactive,
Cc1cc(C)n2nc(SCC(=O)Nc3cc(Cl)ccc3C)nc2n1,inactive,
CCOc1ccc(S(=O)(=O)N(CC(=O)Nc2cccnc2)c2ccccc2)cc1,,inactive: 7.77%
Cc1cc(N2CCN(C)CC2)nc2ccc(NC(=O)Nc3ccccc3Br)cc12,,inactive: -9.93%
CC1=C(C(N)=O)C(c2ccc(C(C)C)cc2)n2nc(SCc3ccccc3)nc2N1 (stereo not drawn),inactive,
COc1ccc(CCNC(=O)c2ccc3c(c2)N(Cc2ccc(C)cc2)CCS3)cc1OC,,inactive: -10.8%
Cc1cccc(NC(=O)c2oc3c(c2C)-c2[nH]ncc2CC3)c1C,,inactive: 0.239%
COc1ccc(CCNc2nc(-c3ccc(C)cc3)cc(C(F)F)n2)cc1OC,inactive,
Oc1c(C(c2ccccc2F)N2CCOCC2)sc2nc(-c3ccco3)nn12 (stereo not drawn),inactive,
CCOC(=O)C1CCN(c2c(C(=O)c3ccc(OCC)cc3)cnc3ccc(OC)cc23)CC1,,inactive: -1.88%
COC(=O)c1ccc(NC(=O)CCc2c(C)nc3c(c(C)nn3-c3ccc(C)cc3)c2C)cc1,inactive,
CCc1nn2c(-c3ccccc3OC)ccnc2c1-c1ccc(F)cc1,,inactive: 32.9%

SMILES,outcome,"activity change, negative = inhibition"
CCn1c(=NC(=O)c2ccc(S(=O)(=O)N3CCCCC3)cc2)sc2cccc(OC)c21,,inactive: -21.6%
CCOC(=O)c1cccc(NC(=O)CC(c2cc(OC)c(OC)c(OC)c2)N2Cc3ccccc3C2=O)c1 (stereo not drawn),,inactive: 8.12%
COc1c(C)cc(S(=O)(=O)Nc2cccc(-c3ccc(N4CCOCC4)nn3)c2)c(C)c1C,,inactive: 14.6%
CCOc1ccc(NC(=O)CN2CCN(Cc3ccccc3)S2(=O)=O)cc1,,inactive: -3.52%
Cc1c(Cl)cccc1NC(=O)CC(c1cccs1)N1Cc2ccccc2C1=O (stereo not drawn),,inactive: -16.6%
CC(NC(=O)CSc1n[nH]c(-c2ccccc2Cl)n1)c1nc2ccccc2n1C (stereo not drawn),,inactive: -28%
Cc1nc2c(C(=O)NCc3ccccc3Cl)c[nH]n2c(=O)c1Cc1cccc(Cl)c1,inactive,
CCN(c1ccccc1)S(=O)(=O)c1ccc2[nH]cc(C(=O)NC3CCCCC3)c(=O)c2c1,inactive,
CCOc1ccccc1-n1c(C)nc2cc(C(=O)O)ccc21,inactive,
CCCCNC(=O)C1CCN(C(=O)N2CC(C)Oc3ccc(Cl)cc32)CC1 (stereo not drawn),,inactive: 9.98%
COc1cccc(NC(=O)CSc2cc(=O)n(C)c3ccc(Cl)cc23)c1,inactive,
Cc1cc(=O)[nH]c2nnc(SCc3ccc(Cl)c(Cl)c3)n12,inactive,
CCOC(=O)N1CCc2c(sc(NCc3sccc3C)c2C(=O)Nc2cc(OC)ccc2OC)C1,inactive,
CCCCN(C)CCCNC(=O)CN1C(=O)COc2ccc(S(=O)(=O)N3CCC(C)CC3)cc21,inactive,
Cc1ccc(CCNC(=O)C(CC(C)C)NS(=O)(=O)c2ccc3c(c2)oc(=O)n3C)cc1 (stereo not drawn),inactive,
N#C/C(=C\c1ccc(F)cc1)C(=O)NCC1CCCO1 (stereo not drawn),,inactive: -6.8%
Cn1cnc(S(=O)(=O)N2CCCC(C(=O)NCc3ccccc3Cl)C2)c1 (stereo not drawn),inactive,
CCOc1ccccc1NC(=O)Cc1coc2c(C)c(C)ccc12,,inactive: 3.12%
COc1ccc(NC(=O)c2c(C(=O)Nc3ccccc3)sc3nc(C)cc(=O)n23)cc1,inactive,
CCOc1ccccc1NC(=O)CN1C(=O)COc2ccc(S(=O)(=O)N3CCCCCC3)cc21,,inactive: 6.87%
CCOc1ccc(C(=O)c2cn(CC(=O)Nc3ccc(F)c(F)c3)c3cc4c(cc3c2=O)OCCO4)cc1,inactive,
CCOc1ccc(C2C(=O)N(C3CCCCC3)CC(=O)N2CCC2=CCCCC2)cc1OC (stereo not drawn),inactive,
COc1cccc(NC(=O)CCc2nc(-c3cccs3)no2)c1,inactive,
CSc1ncc(Cl)c(C(=O)Nc2c(C(=O)c3ccc(C)c(F)c3)oc3ccccc23)n1,inactive,

# — PubChem BioAssay AID1963576 (National Center for Advancing Translational Sciences (NCATS), 2024)
